Source: article PMC7819943, “Rice protein-binding microarrays: a tool to detect cis-acting elements near promoter regions in rice”
Some of the results follow.

These sequences were tested against T1, OsWOX13 (Oryza sativa, UniProt Q5QMM3 1-267) (assay: protein-binding microarray (RPBM); PBS, 2% BSA, 51.3 ng/ul salmon testes DNA, 50 uM zinc acetate, 200 nM TF, 25 C, 1 h; high values mean tight binding). Settings: protein: recombinant; tags: N-terminal polyhistidine and DsRed monomer fusion (pET32a); label: CyDye5-dUTP incorporated in the synthesized complementary strand; 3' TTTTT single-stranded linker to array surface; dsDNA, one strand shown.
T1 sequence: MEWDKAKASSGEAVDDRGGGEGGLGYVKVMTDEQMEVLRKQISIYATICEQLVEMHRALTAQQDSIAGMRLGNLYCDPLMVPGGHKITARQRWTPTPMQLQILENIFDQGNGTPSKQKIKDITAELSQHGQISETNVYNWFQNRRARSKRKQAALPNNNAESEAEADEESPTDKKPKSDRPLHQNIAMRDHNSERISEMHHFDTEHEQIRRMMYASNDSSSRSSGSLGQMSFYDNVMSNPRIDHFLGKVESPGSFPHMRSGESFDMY
Method in brief: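 The binding signal is fluorescence intensity per feature, in arbitrary units, read on an Axon 4000B scanner. Polyhistidine- and DsRed-tagged transcription factors (N-terminal fusions) from E. coli BL21-CodonPlus were purified on Ni–NTA and applied at 200 nM for 1 h at 25 °C to a double-stranded, BSA-blocked custom Agilent array in buffer with 50 µM zinc acetate.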
“AATATACTAATTACAAACAGGTCCCTCGTGGGCTCGTGGGCGGAGTCACCTAGTGCAG” was tested, and the binding signal was 14700 fluorescence intensity (a.u.).
In the case of “AGTTGACAGTTCCAATTAATCGTTCATGCGACCCAATTGACGGAGTCACCTAGTGCAG”, the binding signal is reported as 21500 fluorescence intensity (a.u.).
For “TGTCCACTGAAATTGATTGGAGATCGATGTGATGGTCAAGCGGAGTCACCTAGTGCAG”, the binding signal was 40200 fluorescence intensity (a.u.).
For “CTTTAAATCAATAATTAAATATATTTTCATAATAAATTTGCGGAGTCACCTAGTGCAG”, the binding signal was 10500 fluorescence intensity (a.u.).
In the case of “CAAACTAAATTATATCTAAATTAGAGTAAAGAAAACGAGTCGGAGTCACCTAGTGCAG”, the binding signal is reported as 26600 fluorescence intensity (a.u.).
In the case of “GCTTAACTGCTAGTACTACTAACACCTCACCTACCTCCCTCGGAGTCACCTAGTGCAG”, the binding signal is reported as 11300 fluorescence intensity (a.u.).
“TAGCTAATTCTTAATTAATTATACGCTAATGAATCACTTTCGGAGTCACCTAGTGCAG” was tested, and the binding signal was 23900 fluorescence intensity (a.u.).
“CGGCACTACCTGCAGTTGTAATTGACAGCCGGTCTCTTGTCGGAGTCACCTAGTGCAG” was tested, and the binding signal was 6560 fluorescence intensity (a.u.).
With “CTAAATTTATAATACTATAATATGTTATATTCAGTTTTAGCGGAGTCACCTAGTGCAG” the binding signal was 35900 fluorescence intensity (a.u.).
“TTAATCAAATTAATGTACTGGCAAGTCGGAAAACAATCCTCGGAGTCACCTAGTGCAG” was tested, and the binding signal was 8170 fluorescence intensity (a.u.).
With “AATTAAATTAGAGTATTCAGTTTGTATATAGTACATTTGTCGGAGTCACCTAGTGCAG” the binding signal was 14000 fluorescence intensity (a.u.).
In the case of “TAACATCGCATTGGATATGATTGACATATAACCAATTTAACGGAGTCACCTAGTGCAG”, the binding signal is reported as 8580 fluorescence intensity (a.u.).
For “CATGATTTATATTTCCAAGGTTTGACTTAAACATTGTCCTCGGAGTCACCTAGTGCAG”, the binding signal was 47200 fluorescence intensity (a.u.).
In the case of “TGGAGGGATTTGATTTGGAAAGGATTTGGATTCGGGATTGCGGAGTCACCTAGTGCAG”, the binding signal is reported as 3870 fluorescence intensity (a.u.).
“TTTATTTATAAATTATATTTCGTTTGTATAAATATATTGTCGGAGTCACCTAGTGCAG” was tested, and the binding signal was 4170 fluorescence intensity (a.u.).
In the case of “GTTAGAATGATTAACTAGTAAAGTCGTTCACTCGGCAACGCGGAGTCACCTAGTGCAG”, the binding signal is reported as 26100 fluorescence intensity (a.u.).
In the case of “GGTGTATAAATTTACTAAAATAGGAAAGTAATGCGGTACCCGGAGTCACCTAGTGCAG”, the binding signal is reported as 4010 fluorescence intensity (a.u.).
For “TTAATTTACACCGGTTTTGATAGTCGAGGGAGGGACGAAACGGAGTCACCTAGTGCAG”, the binding signal was 4490 fluorescence intensity (a.u.).
For “ATAATAAGTTAAAACCTAATCAATCATACGCTAATGACTTCGGAGTCACCTAGTGCAG”, the binding signal was 6780 fluorescence intensity (a.u.).
In the case of “CTAATGGTAAATTAATGGAGATTAACCACAGTGCATGGTACGGAGTCACCTAGTGCAG”, the binding signal is reported as 16100 fluorescence intensity (a.u.).
For “CTGACAGGCAAACCAAACGTGCACTCAGCCACTTACCATGCGGAGTCACCTAGTGCAG”, the binding signal was 4860 fluorescence intensity (a.u.).
In the case of “CCTGATTGCCCACCGCCCCATCGCCGTTCGCTGGTATATGCGGAGTCACCTAGTGCAG”, the binding signal is reported as 48500 fluorescence intensity (a.u.).
For “TTGTGATTTGAGATCTTTCAGTCAATATTCTAAGGGTCGACGGAGTCACCTAGTGCAG”, the binding signal was 16100 fluorescence intensity (a.u.).
With “CAATAATTGCAAGATCATGTTACAAAACGGTTCTAATTAACGGAGTCACCTAGTGCAG” the binding signal was 9980 fluorescence intensity (a.u.).
For “TAATATTTAGTCATGAATTGATAGGCTAAACATTAGCCCACGGAGTCACCTAGTGCAG”, the binding signal was 8930 fluorescence intensity (a.u.).
In the case of “ATTGATTATTATTTTAAAATAAAATGGCGTGTTAGGTTTTCGGAGTCACCTAGTGCAG”, the binding signal is reported as 47300 fluorescence intensity (a.u.).
In the case of “TCAAATAATTTCGGTCAGAAATTTCCGAAATTTTGGTAATCGGAGTCACCTAGTGCAG”, the binding signal is reported as 7080 fluorescence intensity (a.u.).
In the case of “CATATTTAATTTGTTACCATATCAAAATTTTGTAATACCACGGAGTCACCTAGTGCAG”, the binding signal is reported as 15600 fluorescence intensity (a.u.).
With “AAACAAATTGGTAGGGCACATTTTGGATTCAAACCAAAATCGGAGTCACCTAGTGCAG” the binding signal was 14200 fluorescence intensity (a.u.).
For “ATATGTAATTTTAGGATTTACATATGTAATTTTAAGACTTCGGAGTCACCTAGTGCAG”, the binding signal was 6930 fluorescence intensity (a.u.).
“TTTGCTAGTAATAGATAGATTTTAAGATGAACAAATCTTGCGGAGTCACCTAGTGCAG” was tested, and the binding signal was 3940 fluorescence intensity (a.u.).
“ATTGATCATTTTCCATCTTGACTGAATGGAGAATTCTACTCGGAGTCACCTAGTGCAG” was tested, and the binding signal was 11200 fluorescence intensity (a.u.).
In the case of “AGACAATCACTCTCCGTAAACGCATTCTGTAAATTCCCCACGGAGTCACCTAGTGCAG”, the binding signal is reported as 6200 fluorescence intensity (a.u.).
For “ACGTCAAAATTGAAAGTTTGATTAAAATTGGAACAATGTGCGGAGTCACCTAGTGCAG”, the binding signal was 26200 fluorescence intensity (a.u.).
With “CGATTTCTTGTTTAATTACTAATCAATTTCATACATTCATCGGAGTCACCTAGTGCAG” the binding signal was 13400 fluorescence intensity (a.u.).
For “ATTTGACTAACTGTTGACTAGTGGTGATGGCATGTAAGGACGGAGTCACCTAGTGCAG”, the binding signal was 18100 fluorescence intensity (a.u.).
For “GTTAATTTTGTCTATGAATGAACGGTCGGCGTCAAGCTTACGGAGTCACCTAGTGCAG”, the binding signal was 29200 fluorescence intensity (a.u.).
“AGTGATTACGGAAAACGGAGCGATCCATTAGCACATGATTCGGAGTCACCTAGTGCAG” was tested, and the binding signal was 16200 fluorescence intensity (a.u.).
With “TTTTATAATATTTAATTAGATTCCTTGGTACGAAATGAAACGGAGTCACCTAGTGCAG” the binding signal was 3190 fluorescence intensity (a.u.).
For “GCTTAATCTCACCCAGTTTGCCCTTATGATTTCTAGATCGCGGAGTCACCTAGTGCAG”, the binding signal was 3790 fluorescence intensity (a.u.).
“AAATTAAATCACGAGACAGTTTAGTAGGATCCGTGGCTATCGGAGTCACCTAGTGCAG” was tested, and the binding signal was 5890 fluorescence intensity (a.u.).
“TGAACAGGCTAGCTAATTGGTCTCGATTGCGCTTTGGTTACGGAGTCACCTAGTGCAG” was tested, and the binding signal was 4440 fluorescence intensity (a.u.).
